± gives the standard deviation of the averaged measurements. The list shows a part of the results.
Test system: PfAP2-I AP2 domain 3 (GST-tagged)
Experiment: gcPBM binding intensity (ln(normalized median fluorescence intensity)); higher = stronger DNA binding
Procedure, shortened: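 An Agilent 4 × 180k array carrying primer-extended double-stranded 36-bp intergenic genomic probes and negative controls received GST-tagged P. falciparum DNA-binding domains expressed in E. coli, about 25 μg on average, for 1 h. The binding buffer contained 1× PBS, 1% milk, 0.2 mg/ml BSA, 0.5% salmon testes DNA and 0.03% Triton X-100. Binding intensity is the top Masliner-normalised natural-log median intensity across replicate spots of either probe orientation, read after Alexa488 anti-GST antibody staining and a 488 nm scan.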

Sequence	gcPBM binding intensity (ln)
AAATGTTGAAAAATATGTACATATTATATATATTAT [XGTACX_site1165]	7.85 ± 0.2
ATTTAGAAAAAATATACACACAGCCTAAACATGCAT [CACACA_site4067]	7.7 ± 0.67
AATATAAGCAAATACACACACACATATATATATATA [CACACA_site3805]	9.34 ± 0.25
TATTTATTTGTTTAAGGTACAGAACAAATTTTTATT [XGTACX_site7414]	7.75 ± 0.43
ATATTTATTATTATATGTACGTAACATCTTTATAAA [XGTACX_site7016]	8.13 ± 0.32
CATAAATACATACATACACACATATATATATATATA [CACACA_site2106]	9.23 ± 0.42
AAATGTTCTTAAAAATGAATAATATATATATATATA [CACACA_negctrl_site796]	9.06 ± 0.2
ATTATATATATGTGCACACAAAAGATATATATATAT [CACACA_site5205]	10.2 ± 0.13
ATATTTATTTGTTAGTGTACATACATATATATATAT [XGTACX_site1347]	9.47 ± 0.4
AAATAATTTACTTAATGTACATATATATATATATAT [XGTACX_site8594]	9.42 ± 0.24
TTTTAATTTATTTATGCACACATATATAATTACACA [CACACA_site8126]	9.8 ± 0.35
AAAAATAAACAATATATAGTTATATATATATATATA [TGCATGCA_negctrl_site82]	9.29 ± 0.69
AAGCACAAAAAATACACACACAAAAAATAAAAAAAG [CACACA_site1840]	7.87 ± 0.47
TATATATATCTGTACACACACACATATAAATAAATA [CACACA_site4405]	8.37 ± 0.23
GAGAAATGGGGACACACACACATATTATATATATAT [CACACA_site4943]	9.2 ± 0.085
ATATAAATATATGTATGTACGCATGTATGTATCTAT [XGTACX_site3290]	8.16 ± 0.27
TATATGCATAATAACTGTACACAAATTGGGGTTGAT [XGTACX_site459]	8.37 ± 0.36
ATGTATGTTTGTTATGCACACAAATGCATCTTATTT [CACACA_site8861]	10.12 ± 0.021
ATAATGAACAATATTATATATAAAATATAATTTATA [GTGCAC_negctrl_site564]	7.34 ± 0.34
ATTATGTATACATAAACACACATATATATAAAAAAA [CACACA_site262]	7.92 ± 0.64
AAATTAAGTATATATTGTACACATAATATGATTGTA [XGTACX_site3083]	7.56 ± 0.35
TTATTTTCATATAGGTGTACATAAAAATATTCTTAT [XGTACX_site8861]	8.21 ± 0.23
TAAGTTTATTGAAATTGTACAAACATAAATGTAAAA [XGTACX_site162]	7.86 ± 0.61

Sequence	gcPBM binding intensity (ln)
TTATATTTTTTTTTTTCACACACATTTATATTGTAT [CACACA_site9025]	7.88 ± 0.76
TATACTAAGAAGTATTTACACACCAACAAGGCGAAA [CACACA_site8963]	7.7 ± 0.78
ATGTTCATTATATGCACACATATATATAAATGTAAT [CACACA_site2908]	9.34 ± 0.3
TATCATAAAAAATATACACACAAAGGATATATATAT [CACACA_site1571]	8.855 ± 0.021
TGTGCCTATAAATTAACACACAGAAATATATAGAGA [CACACA_site818]	9.11 ± 0.66
TTATTCTGACAGAATTGTACTAATGTCTTTAAAAAA [XGTACX_site1256]	7.5 ± 0.47
TATTTGTTTGTTCGGGTGCTTACATATATTCTTATA [GTGCAC_site9972]	9.04 ± 0.16
TTAATTAGAAATCATACACACATATAAATAAATATA [CACACA_site6225]	7.5 ± 0.45
AATTATATACATAAGTGTACATAATATATAAACATA [XGTACX_site793]	7.72 ± 0.28
TTTTCAATTAATAATACACACATGTATTTATTATTA [CACACA_site5774]	7.83 ± 0.34
TGTTGTAAATTAAAGACATGCACGTGAGAAAATATA [TGCATGCA_site285]	9.54 ± 0.54
TATATATATTTTATATGTACGTATGGAACAATATGA [XGTACX_site8167]	8.16 ± 0.13
TTTTCTATGCTAAACACACTCATTGTTACAAGTTTT [CACACA_site5531]	8.01 ± 0.71
TTATTTATTTTTTATACACACAATTATCATTTTAAG [CACACA_site22]	7.96 ± 0.48
CTTATGTGCATACCTACACACTTACAGATATATATA [CACACA_site5622]	8.51 ± 0.24
TTCAAATATTTTATTTGTACATAAAAAAGAAAGTTA [XGTACX_site8287]	7.87 ± 0.057
TAGGAAGAATTACTGTGTACTAAAATATTAAAAAGT [XGTACX_site4909]	8.22 ± 0.67
ATAAATGAAAAAAAGCGTACATATAAAAAAATATAT [XGTACX_site5063]	8.02 ± 0.33
TGTAAATAATATAATAGTACGCATATTTTTATTGAA [XGTACX_site284]	7.87 ± 0.17
ACTTACCCATTTATTACACACATAAAGGAAAATTTT [CACACA_site4873]	8.46 ± 0.59
TGTTTATGTATCAATTGTACAAAAAAAAAAAAAAAA [XGTACX_site1590]	8.16 ± 0.83
TTCAAAAAAATGTATACACACATAAGTATAATATAA [CACACA_site3758]	7.61 ± 0.62
GATTTTTTTTTTTTTTCACACACTAATAATATTATC [CACACA_site464]	7.95 ± 0.72

Sequence	gcPBM binding intensity (ln)
ATTATTAAAAAGATGTAAATAAATGAATATATGCTT [CACACA_negctrl_site539]	7.79 ± 0.61
TATTAAGAATTTACATGTACTTGTTAAATAAGAAAA [XGTACX_site4466]	7.82 ± 0.53
TTCTATATATTTTAATGTACATATATGATTATTCTT [XGTACX_site8294]	7.95 ± 0.37
ATATAGTATAATAAAAGTACATTTTGATTTTTTCTC [XGTACX_site1797]	7.62 ± 0.5
TAAATAATATCTATCACACACGCATATATACATATA [CACACA_site2622]	7.56 ± 0.55
GTCGCATTTTATACAAGTACACATGAATTATACAAC [XGTACX_site2200]	8.505 ± 0.064
ATTTATAATCAGGGTTGTACACTTATAGAATTTTTA [XGTACX_site4175]	7.72 ± 0.46
ATATAAATATATGGAAGTACACAAAAAAATTAAAAA [XGTACX_site8624]	8.02 ± 0.28
CATAAGAAAATAAAAACATGCACATAAGAAATATAC [TGCATGCA_site842]	8.41 ± 0.87
AATCTTCATACCAACACATGCACAAAAGAAATAAAA [TGCATGCA_site563]	8.78 ± 0.83
TATATTTATACATATTGTACATTTTATACTTTTACA [XGTACX_site3884]	7.76 ± 0.52
ACCTAAGAACTATTTACACACATATACAAAATATAT [CACACA_site2459]	8.04 ± 0.42
ATTGTTCTATGATTTGTACACACTTTTTTTTAAAAT [CACACA_site2825]	8.43 ± 0.46
CATATAAAAATATGCACACACAGGAATACAAACATA [CACACA_site684]	8.91 ± 0.11
AATAAAAAACTACAATATACAAAATTATTAAATCAA [GTGCAC_negctrl_site703]	7.32 ± 0.39
AAACGTACATAATACACACACATGTATCCATATAAA [CACACA_site5173]	8.28 ± 0.28
AAGTTTATCACAGCCACGCACACATAATATATGTAT [CACACA_site3670]	7.86 ± 0.72
TTTAAAAATGCTACATGTACAAAATAAAATATAATA [XGTACX_site2905]	7.93 ± 0.61
ATATATATATATAAAAGTACATGCTTATATATATAT [XGTACX_site3786]	9.48 ± 0.26
TACAAAATATATATGACACACATAAAAAAAAGTATA [CACACA_site1373]	7.74 ± 0.45
TATATAAACATACATACACACATACAATAAGTAAAA [CACACA_site5118]	7.97 ± 0.49
CACCCACTAATAAACACACACATATATATATATATA [CACACA_site389]	9.46 ± 0.34
ATTTTTTTTATTCAATGTACTTTTTTTTATATATAT [XGTACX_site4978]	8.15 ± 0.26

Sequence	gcPBM binding intensity (ln)
AATAAAATGAGATGTTGTACAGTTTTGATATATGCA [XGTACX_site3052]	7.96 ± 0.19
GTATGTATGTATGTATGTACTTATGTAGTCTTAGTT [XGTACX_site1710]	8.91 ± 0.27
AGTGTAGGTATATAAACACACATACAGATATATAAT [CACACA_site4900]	7.67 ± 0.93
TAAAAAATAAAATGGACACACACGTTCAAATTTAGA [CACACA_site2083]	7.57 ± 0.59
TTAATAAACCTTAGATGTACAGTTATATATAAAATA [XGTACX_site6681]	7.64 ± 0.36
ATATATATATATATATGTACACATATATGTGTTTGT [XGTACX_site62]	9.3 ± 0.4
TGAACTCACGAGCACACACACACATATATATATATA [CACACA_site8248]	9.4 ± 0.23
ATATATATTTTTTAATGTACTTATATTTTTATAATA [XGTACX_site2103]	8.11 ± 0.39
ATACAATAAAGGTGTACACATATATGATGCAAGATG [CACACA_site5897]	8.64 ± 0.45
GGTCATATTTTTTGCACACAAAAAAAAATATAAAAT [CACACA_site3381]	9.42 ± 0.16
AGCAATTGTGTTTTCACACATAAATATATTCCTCAC [CACACA_site5021]	7.78 ± 0.54
AATTAAACTCACACCACACACAAAAAAAAAAAAAAA [CACACA_site693]	8.21 ± 0.41
AATATTACAAAATATTGTCCGTACAAATTTTTAATA [XGTACX_site8129]	7.64 ± 0.52
AAAAAAAAAAAAAAGACACACATATATATATATATA [CACACA_site633]	9.31 ± 0.19
GATGATAAAATATGTACACACAGTTTATACATTTTG [CACACA_site4055]	7.71 ± 0.43
TTAACATATTATAAGTGTACATATTTATAAACAAGA [XGTACX_site8806]	8.1 ± 0.29
ATTTTGAAAAATAAAAGTACATATAATATATCTACA [XGTACX_site7185]	7.6 ± 0.26
TCTGTTAATATTTATACACACATATTTATTTATATA [CACACA_site6658]	7.78 ± 0.57
ATATACATATATATGGGTACATATATTAATATATAT [XGTACX_site8358]	7.84 ± 0.35
TTTAGATATATGGTAGTGCATAATAAAAATATAGCC [GTGCAC_site9449]	11.1 ± 0.67

From the supplement of paper PMC11417369
